For assay [1], the target named is T1, cleavage and polyadenylation specificity factor 30-L (CPSF30-L), BD fusion for yeast two-hybrid (Arabidopsis thaliana) (UniProt A9LNK9).
T1 sequence: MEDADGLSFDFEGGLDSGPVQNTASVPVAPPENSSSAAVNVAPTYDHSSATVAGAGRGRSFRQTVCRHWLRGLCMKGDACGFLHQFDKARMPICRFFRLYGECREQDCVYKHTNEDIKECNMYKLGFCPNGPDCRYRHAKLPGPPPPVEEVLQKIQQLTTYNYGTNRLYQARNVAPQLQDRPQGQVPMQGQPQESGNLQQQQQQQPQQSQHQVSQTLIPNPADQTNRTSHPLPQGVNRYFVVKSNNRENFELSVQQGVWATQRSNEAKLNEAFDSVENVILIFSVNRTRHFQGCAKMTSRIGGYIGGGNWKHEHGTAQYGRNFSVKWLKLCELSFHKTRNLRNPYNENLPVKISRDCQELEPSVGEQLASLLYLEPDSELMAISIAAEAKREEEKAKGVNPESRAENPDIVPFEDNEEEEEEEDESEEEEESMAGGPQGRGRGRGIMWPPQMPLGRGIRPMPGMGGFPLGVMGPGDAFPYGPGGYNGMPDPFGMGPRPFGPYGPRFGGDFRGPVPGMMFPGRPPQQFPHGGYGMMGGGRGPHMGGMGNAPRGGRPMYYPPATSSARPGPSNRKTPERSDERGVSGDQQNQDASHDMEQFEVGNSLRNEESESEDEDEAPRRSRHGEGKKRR
In words: two-hybrid; yeast two-hybrid (Clontech); CPSF30-L or mCPSF30-L in pGBKT7 (BD) as bait, FIP1, FIP1-S1 or FIP1-S2 in pGADT7 (AD); interaction tested on QDO (SD medium lacking leucine, tryptophan, histidine and adenine).

Assay [2] addresses T2, GST-CPSF30-L (Arabidopsis thaliana) (UniProt A9LNK9).
T2 sequence: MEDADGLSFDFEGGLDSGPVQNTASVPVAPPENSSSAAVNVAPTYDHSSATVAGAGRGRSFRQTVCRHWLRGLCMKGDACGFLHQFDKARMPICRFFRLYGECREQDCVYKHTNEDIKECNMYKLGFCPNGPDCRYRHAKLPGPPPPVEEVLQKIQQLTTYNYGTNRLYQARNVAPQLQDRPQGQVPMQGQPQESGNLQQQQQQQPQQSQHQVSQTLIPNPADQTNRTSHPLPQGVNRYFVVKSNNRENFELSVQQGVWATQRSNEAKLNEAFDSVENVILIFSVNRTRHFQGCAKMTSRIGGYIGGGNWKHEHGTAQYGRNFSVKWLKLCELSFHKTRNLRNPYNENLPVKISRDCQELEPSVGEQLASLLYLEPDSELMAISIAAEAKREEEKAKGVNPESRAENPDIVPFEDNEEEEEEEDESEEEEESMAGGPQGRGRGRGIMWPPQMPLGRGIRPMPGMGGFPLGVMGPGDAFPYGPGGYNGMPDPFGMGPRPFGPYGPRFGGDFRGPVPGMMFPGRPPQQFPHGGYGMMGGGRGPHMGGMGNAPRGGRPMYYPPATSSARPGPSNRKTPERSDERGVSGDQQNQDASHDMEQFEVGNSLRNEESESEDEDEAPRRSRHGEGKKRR
Put plainly: pull-down; GST-tagged bait immobilised on glutathione agarose beads (Thermo GST protein interaction pull-down kit), His-tagged prey, both made in E. coli BL21; eluate blotted with anti-His antibody.

For assay [3], the target named is T3, CPSF30-L-YFP^N (Arabidopsis thaliana) (UniProt A9LNK9).
T3 sequence: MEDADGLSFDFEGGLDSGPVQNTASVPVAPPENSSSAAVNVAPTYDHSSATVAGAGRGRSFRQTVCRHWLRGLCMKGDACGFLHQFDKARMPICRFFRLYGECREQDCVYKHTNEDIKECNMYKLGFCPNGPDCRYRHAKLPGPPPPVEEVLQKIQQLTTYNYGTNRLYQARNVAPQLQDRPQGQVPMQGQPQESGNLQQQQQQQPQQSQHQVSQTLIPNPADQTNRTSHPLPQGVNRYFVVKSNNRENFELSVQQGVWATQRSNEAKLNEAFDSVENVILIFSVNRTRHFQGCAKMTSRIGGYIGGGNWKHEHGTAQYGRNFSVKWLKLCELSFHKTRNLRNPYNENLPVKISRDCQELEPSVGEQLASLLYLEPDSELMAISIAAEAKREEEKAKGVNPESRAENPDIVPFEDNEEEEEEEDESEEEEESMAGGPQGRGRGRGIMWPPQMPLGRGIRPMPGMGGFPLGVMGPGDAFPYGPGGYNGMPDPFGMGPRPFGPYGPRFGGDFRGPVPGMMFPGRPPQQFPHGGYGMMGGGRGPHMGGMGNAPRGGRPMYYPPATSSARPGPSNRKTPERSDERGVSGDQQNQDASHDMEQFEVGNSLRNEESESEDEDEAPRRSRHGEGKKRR
Put plainly: split reporter; BiFC; YFP^N and YFP^C fusions cotransfected into Arabidopsis mesophyll protoplasts, confocal microscopy; signal in the nucleus.

Results are given in words; binding and its absence hold for the method and conditions named. For part of these data: Binding seen in cells or lysates may run through a third protein. Some binding calls cover weakened binding; strength is not graded here. Sequences can lack the tags named with a protein.

B1: FIP1-S1 (N-terminal 445 amino acid residues of FIP1), AD fusion for yeast two-hybrid (domain or fragment, UniProt F4KDH9 1-445)
chain: MEEDDEFGDLYSDVLQPFQPPVVLPPPPPLPHRSIDLNLRSQDQDVSEPNSAPISRVSDNDAVKLSTQDATRQAIVDGGGDDKDMSFDIEEPDADSTPTIPGLFVTGALPGLATDRGVSQVTTRIEQQVGGGGDGGYGGQGEGDDWDSDSEDDLQIVLNDSSRNVMIGGADRRSRMGDNEDDDDEDDEDPLVIVADTDPNQPMEEQMWGEDGLQGIEGDGKDGGEAGKGSGPGGATGPPKAGYSSHGYHPFHSQFKYVRPGAAPIPGGAASVGGPSSGQVRPPANLGPMAGRGRGDWRPLGMRNASAAQKGFHQPWGSNTAGRGLDFTLPSHKTIFEVDIDSFEEKPWRYPGVEMTDYFNFGLNEESWKDYCKQLDQHRIQTTMQSRIRVYESGRTDQGYDPDLPPELAAATGAQGVPVDSSNLVKPDSVQGDSAKVPANVRPTL
For B1, the binding result in assay [1] is reported as “binds”.

B2: His-FIP1-S1 (domain or fragment, UniProt F4KDH9 1-445)
chain: MEEDDEFGDLYSDVLQPFQPPVVLPPPPPLPHRSIDLNLRSQDQDVSEPNSAPISRVSDNDAVKLSTQDATRQAIVDGGGDDKDMSFDIEEPDADSTPTIPGLFVTGALPGLATDRGVSQVTTRIEQQVGGGGDGGYGGQGEGDDWDSDSEDDLQIVLNDSSRNVMIGGADRRSRMGDNEDDDDEDDEDPLVIVADTDPNQPMEEQMWGEDGLQGIEGDGKDGGEAGKGSGPGGATGPPKAGYSSHGYHPFHSQFKYVRPGAAPIPGGAASVGGPSSGQVRPPANLGPMAGRGRGDWRPLGMRNASAAQKGFHQPWGSNTAGRGLDFTLPSHKTIFEVDIDSFEEKPWRYPGVEMTDYFNFGLNEESWKDYCKQLDQHRIQTTMQSRIRVYESGRTDQGYDPDLPPELAAATGAQGVPVDSSNLVKPDSVQGDSAKVPANVRPTL
Consider B2, for which the binding entry in assay [2] is recorded as “binds”.

B3: FIP1-S1-YFP^C (domain or fragment, UniProt F4KDH9 1-445)
chain: MEEDDEFGDLYSDVLQPFQPPVVLPPPPPLPHRSIDLNLRSQDQDVSEPNSAPISRVSDNDAVKLSTQDATRQAIVDGGGDDKDMSFDIEEPDADSTPTIPGLFVTGALPGLATDRGVSQVTTRIEQQVGGGGDGGYGGQGEGDDWDSDSEDDLQIVLNDSSRNVMIGGADRRSRMGDNEDDDDEDDEDPLVIVADTDPNQPMEEQMWGEDGLQGIEGDGKDGGEAGKGSGPGGATGPPKAGYSSHGYHPFHSQFKYVRPGAAPIPGGAASVGGPSSGQVRPPANLGPMAGRGRGDWRPLGMRNASAAQKGFHQPWGSNTAGRGLDFTLPSHKTIFEVDIDSFEEKPWRYPGVEMTDYFNFGLNEESWKDYCKQLDQHRIQTTMQSRIRVYESGRTDQGYDPDLPPELAAATGAQGVPVDSSNLVKPDSVQGDSAKVPANVRPTL
For the molecule B3, the binding result in assay [3] was “binds”.

The record behind these values is publication PMC5945890.
